Measurements as given in PubChem BioAssay AID1347417 (National Center for Advancing Translational Sciences (NCATS), 2020).
Out of some 120,000 compounds screened, about 5,300 (4.4%) were called active. Inconclusive means that the source gave no clear call. Such entries were picked first, then a sample of the others. Calls come from the whole dose curve; as a rule, active = well fitted inhibition curve with a large enough effect; inconclusive = small, poorly fitted or top-dose-only effect; inactive = no such curve, though single readings can be large or run the other way. Potencies of inconclusive entries are doubtful fits and often do not repeat.
Potency is the fitted concentration of half-maximal effect; tags give direction and shape of the fitted curve.

Assay: qHTS Primary assay for Inhibitors of Plasmodium falciparum Dd2 growth in vitro; note: nearly all actives have a fitted effect of over 65% in size
Conditions: P. falciparum Dd2 growth, SYBR Green, 72 h; series mostly up to 28.9 µM
Outline: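 Readout: SYBR Green fluorescence, 485 nm excitation, 535 nm emission, after ~16 h lysis at 37C. Before that, Dd2-infected red cells (2.5% hematocrit) grew 72 h with compound, 29 uM top final concentration.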
In the case of `COc1cccc(CC2CN(Cc3ccc(F)cc3OC)CCO2)c1` (configuration not stated), the Potency is reported as inconclusive: 12.6 µM [inhibitor, single point]. With `O=C(c1n[nH]c2c1CCCCCC2)N1CCC(c2nc(C3CCOCC3)no2)C1` (configuration not stated) the Potency was “inactive”. For `O=c1ncn(CC2CC2)c2ccc(-c3ccc(F)cc3)nc12`, the Potency was “inactive”. For `CCc1nccc(-c2c(-c3ccccc3)ncn2CCN2CCCCC2CO)n1` (configuration not stated), the Potency was inconclusive: 11.2 µM [inhibitor, single point]. For `c1ccc(CN2CCNc3cnc(Nc4ccc(N5CCOCC5)cc4)cc3C2)cc1`, the Potency was inconclusive: 2.24 µM [inhibitor, full curve, poor fit]. For `COc1cccc(-c2ccc(CN3CC4CCC(C3)N4c3ccc(C(F)(F)F)cc3)cc2)c1`, the Potency was inconclusive: 12.6 µM [inhibitor, single point]. With `Cc1ccc(CNC(=O)c2nc(SCc3ccccc3F)ncc2Cl)cc1` the Potency was inconclusive: 0.447 µM [inhibitor, partial curve, poor fit]. In the case of `O=C(Cc1ccc(O)cc1)N1CC(CNc2ccccc2)C2(C1)CN(c1ccccc1)C2` (configuration not stated), the Potency is reported as inconclusive: 0.112 µM [inhibitor, full curve, poor fit]. With `Cc1cccc(C(=O)N2CC[C@H]3C(=O)NCCCCCCN(Cc4ccncc4)[C@@H]3C2)c1` the Potency was inconclusive: 10 µM [inhibitor, single point]. For `COc1ccc(-n2nc(C)c([C@@H]3C=C[C@@H](NS(=O)(=O)c4cccs4)C3)c2C)cc1`, the Potency was inconclusive: 5.01 µM [inhibitor, single point]. With `CCOc1ccc(C(=O)NCc2nc3cccnc3n2Cc2ccc(F)cc2)cc1OCC` the Potency was “inactive”. For `CCOC(=O)C1=C(C)N=C2SC=C(CC(=O)N3CCCC3)N2C1c1cccc(Cl)c1` (configuration not stated), the Potency was inconclusive: 10 µM [inhibitor, partial curve, poor fit]. In the case of `COc1cccc(CN2CC[C@@H]3C(=O)NCCCCCCN(Cc4ccncc4)[C@@H]3C2)c1`, the Potency is reported as inconclusive: 22.4 µM [inhibitor, partial curve, poor fit]. In the case of `c1ccc(C(CNc2ncncn2)N2CCCCCC2)cc1` (configuration not stated), the Potency is reported as inconclusive: 14.1 µM [inhibitor, partial curve]. For `O=C(COc1ccccc1)N(Cc1cccnc1)c1nc2c(F)cccc2s1`, the Potency was inconclusive: 17.8 µM [inhibitor, partial curve, poor fit]. In the case of `CC(=O)Nc1cccc(C(=O)N2CCC3(CC2)N=C(c2ccc(C)cc2)NO3)c1`, the Potency is reported as inconclusive: 0.0891 µM [inhibitor, full curve, poor fit]. For `Cc1cccc(C(=O)N2CCC(n3cnnc3C3CC3)CC2)c1`, the Potency was “inactive”. For `Nc1ccc(NC(=O)c2cccc(C(=O)Nc3ccc(N)cc3Cl)c2)c(Cl)c1`, the Potency was inconclusive: 1.12 µM [inhibitor, partial curve]. With `N#Cc1cccc(CN2C[C@H](O)C[C@H]2c2nc(-c3ccc(F)cc3)no2)c1` the Potency was “inactive”. For `COc1ccc(-c2ccc3nc(-c4c(F)c(F)cc(F)c4F)oc3c2)c(OC)c1OC`, the Potency was inconclusive: 17.8 µM [inhibitor, single point]. In the case of `COc1ccccc1CN1CCN(C(=O)CC2CCOCC2)CC1`, the Potency is reported as inconclusive: 3.55 µM [inhibitor, full curve, poor fit]. For `O=C1CC(c2ccccc2)N(Cc2ccncc2)CCCN(S(=O)(=O)c2cccnc2)CCN1` (configuration not stated), the Potency was inconclusive: 1.12 µM [inhibitor, partial curve]. For `CN(C)C[C@@H]1CN(c2ncccn2)C[C@H]1NC(=O)CCc1ccccc1`, the Potency was inconclusive: 6.31 µM [inhibitor, partial curve, poor fit]. In the case of `O=C(C1CCCC1)N1CCC2(C1)C(=O)N(CCc1ccccc1)c1ccccc12` (configuration not stated), the Potency is reported as inconclusive: 3.98 µM [inhibitor, single point]. For `c1ccc(Oc2ccc(Nc3ncc(-c4cncnc4)c4c3OCC4)cc2)cc1`, the Potency was inconclusive: 14.1 µM [inhibitor, single point]. In the case of `COc1ccc(-c2noc(-c3cccn3CC(=O)Nc3ccccc3OC)n2)cc1F`, the Potency is reported as inconclusive: 3.16 µM [inhibitor, single point]. With `COc1ncccc1-c1cnc2[nH]cc(CC(=O)N3CCOCC3)c2c1` the Potency was inconclusive: 31.6 µM [inhibitor, single point]. With `CC(C)CNc1ccc2c(n1)C(C)(C(=O)NC1CCN(C)CC1)CN(Cc1ccccc1)C2` (configuration not stated) the Potency was inconclusive: 20 µM [inhibitor, partial curve, poor fit]. For `O=C(NCc1ccccn1)C1c2ccccc2C(=O)N(C2CCCCC2)C12CCCCC2` (configuration not stated), the Potency was inconclusive: 10 µM [inhibitor, partial curve, poor fit]. In the case of `CC(=O)N1CCc2c(sc3nc(SCC(C)C)n(-c4ccc(C)c(Cl)c4)c(=O)c23)C1`, the Potency is reported as inconclusive: 17.8 µM [inhibitor, single point]. For `CNC(=O)[C@@H]1C[C@H](Oc2cccnc2)CN1C(=O)c1cc(-c2ccc(F)cc2)n[nH]1`, the Potency was “inactive”. In the case of `O=C1[C@H]2CN(Cc3cc(Cl)ccc3F)C[C@H]2C(=O)N1CCc1ccccc1`, the Potency is reported as inconclusive: 17.8 µM [inhibitor, single point]. For `O=C(c1ccc(Cl)cc1)N1CCCC(c2nn(-c3ccc(F)cc3)c(=O)[nH]2)C1` (configuration not stated), the Potency was inconclusive: 11.2 µM [inhibitor, partial curve, poor fit]. In the case of `C#CC(C)(CC)NC(=O)Cn1nnc(-c2ccc(OCc3ccccc3C)cc2)n1` (configuration not stated), the Potency is reported as inconclusive: 11.2 µM [inhibitor, partial curve]. For `COc1ccccc1N1CCN(C(=O)c2cnn(-c3cccc(Cl)c3)c2C2CCN(C(=O)OC(C)(C)C)CC2)CC1`, the Potency was active: 7.94 µM. In the case of `Cc1ccc(-n2nc(C)c([C@@H]3C=C[C@@H](NCc4ccc(N(C)C)cc4)C3)c2C)cc1Cl`, the Potency is reported as “inactive”. In the case of `CCc1ccccc1NC(=O)c1cc(S(=O)(=O)N2CCc3ccccc32)ccc1F`, the Potency is reported as inconclusive: 11.2 µM [inhibitor, single point]. For `O=C(NCc1ccncc1)C1CNCC12CCOCC2` (configuration not stated), the Potency was “inactive”. For `COc1cc(/C=C(\C#N)c2nc3ccccc3[nH]2)ccc1OCc1ccc(F)cc1`, the Potency was active: 1 µM. With `CCCN(CCC)CCCNC(=O)c1cnn(-c2ccc(F)cc2)c1-n1cccc1` the Potency was inconclusive: 0.794 µM [inhibitor, partial curve, poor fit]. For `COC(=O)c1ccc2nc(C[C@@H]3C[C@@H](C(C)C)[C@H](CNC4CCN(C(C)=O)CC4)C=C3C)[nH]c2c1`, the Potency was inconclusive: 10 µM [inhibitor, partial curve, poor fit]. In the case of `C[C@@H]1C(=O)O[C@H]2[C@H]1CC[C@@]1(C)Cc3sc(NC(=O)c4c(F)cccc4F)nc3[C@@H](C)[C@H]21`, the Potency is reported as inconclusive: 7.94 µM [inhibitor, partial curve]. With `CCc1nc(SC)ncc1C(=O)N1CCN(c2cc(Cl)ccc2C)CC1` the Potency was “inactive”. With `CC(C)c1nc2ccccc2n1CCNC(=O)Cn1nc2c(cc1=O)CCCCC2` the Potency was inconclusive: 20 µM [inhibitor, single point]. For `CCOc1ccc(NC(=O)C2CCN(c3nnc(C)c4c(C)n(-c5ccccc5)nc34)CC2)cc1`, the Potency was “inactive”. For `COCCNC(=O)[C@@H]1C[C@H](Oc2ccccc2)CN1C(=O)c1cnccn1`, the Potency was “inactive”. In the case of `Cc1ccc(NC(=O)CSc2nc3c([nH]c4ccccc43)c(=O)n2-c2ccccc2)cc1Cl`, the Potency is reported as inconclusive: 17.8 µM [inhibitor, single point]. In the case of `CCOC(=O)c1c(C)oc2nc(C)nc(N3CCN(c4ccccc4F)CC3)c12`, the Potency is reported as active: 3.16 µM. In the case of `CS(=O)(=O)N(Cc1cccnc1)C1CN(C(=O)Nc2ccc3c(c2)OCCO3)C1`, the Potency is reported as “inactive”. With `COCC(=O)N[C@H]1C[C@@H](CO)N(Cc2cccc(OC)c2)C1` the Potency was “inactive”. With `CC(=O)Nc1ccc(CN2CCCC3(CC(c4cccc(C(F)(F)F)c4)=NO3)C2)cc1` (configuration not stated) the Potency was inconclusive: 10 µM [inhibitor, single point]. In the case of `COc1ccccc1CNC(=O)C(C)n1ccc2cc(S(=O)(=O)N3CCCC3)ccc21` (configuration not stated), the Potency is reported as “inactive”. In the case of `COc1ccc(CNC(=O)c2ccc3nc(CCc4ccccc4)oc3c2)cc1`, the Potency is reported as inconclusive: 17.8 µM [inhibitor, single point]. For `CO[C@H]1[C@H](NC(=O)c2cc(CC(C)C)no2)c2ccccc2C12CCNCC2`, the Potency was inconclusive: 8.91 µM [inhibitor, partial curve, poor fit]. In the case of `Cc1[nH]n2c(=O)cc(-c3ccc(Cl)cc3)nc2c1-c1ccccc1`, the Potency is reported as inconclusive: 10 µM [inhibitor, single point]. With `COC1CN(C2CCN(C(=O)C3CCCC3)CC2)C12CCOCC2` (configuration not stated) the Potency was “inactive”. For `O=C(c1ccncc1)N1CCC(OCC2CC2)C1` (configuration not stated), the Potency was inconclusive: 11.2 µM [inhibitor, single point]. In the case of `CCN1C(=O)CCN(C(=O)CCc2ccccc2)CC12CCOCC2`, the Potency is reported as inconclusive: 2.51 µM [inhibitor, single point]. With `COc1ccc(CN2C=C(C(=O)OCc3nc(-c4cccs4)no3)C(C)=NS2(=O)=O)cc1` the Potency was “inactive”. With `Cc1cc(=O)n(C(C)C(=O)N2CCCc3ccccc32)c2c1c(C)nn2-c1ccccc1` (configuration not stated) the Potency was inconclusive: 7.94 µM [inhibitor, partial curve, poor fit]. In the case of `COc1ccc(OC)c(S(=O)(=O)N2C[C@@H](Oc3ccccc3)C[C@H]2C(=O)NC2CC2)c1`, the Potency is reported as inconclusive: 17.8 µM [inhibitor, single point]. With `CC(C)NC(=O)N1CCC2(CC1)CN(C(=O)c1cccc3[nH]ccc13)Cc1ccccc1O2` the Potency was inconclusive: 8.91 µM [inhibitor, partial curve].
